# Source: PubChem BioAssay (EPA / NIEHS)
# Certain results were filed several times, with different values. Only these are listed. An entry can have further records. The records of an entry are repeated measurements across runs, samples, wells, individuals or studies. Additions like (4×) give the number of equal values in this list. Inconclusive results are not listed. The calls were made as follows, unless noted: active = hit-call score of the fitted dose curve at least 0.9, where 1 is the maximum; inconclusive = response in the unintended direction; inactive = score below 0.9.
# Tests used:
# [1] = molecular target: bovine Estrogen Receptor (ER), ESR1 (gene 407238) (UniProt P49884); assay: NVS_NR_bER: NovaScreen (NVS) Nuclear Receptor Binding Assay for bovine Estrogen Receptor (ER) (AID 2283345);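 also: actives lower the bound radioligand count which means they displace the ER ligand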
# Method in brief: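 Cell-free radioligand binding with bovine uterine membrane extracts, read 18 hours after dosing by scintillation counting. Loss of signal versus DMSO baseline indicates displacement. Primary screen run in duplicate at 25 uM, actives followed in concentration series.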
# [2] = molecular target: mouse Estrogen Receptor alpha (Era), Esr1 (gene 13982) (UniProt P19785); assay: NVS_NR_mERa: NovaScreen (NVS) Nuclear Receptor Binding Assay for mouse Estrogen Receptor alpha (Era) (AID 2283378);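 also: hit means loss of bound radioligand signal relative to DMSO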
# Method in brief: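 Cell-free radioligand competitive displacement binding, read by filter-based scintillation counting 18 h after dosing. Primary screen run in duplicate at 25 uM, actives retested in concentration series; loss of signal versus DMSO.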
# [3] = ATG_VDRE_CIS: Attagene CIS-FACTORIAL HepG2 Assay for human Vitamin D Receptor Element (VDRE) (AID 2282968; active = hit-call score of the fitted dose curve at least 0.9, where 1 is the maximum; inactive = score below 0.9); details: HepG2 VDRE cis-reporter transcription, actives raise or lower the signal
# Method in brief: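 Transiently transfected HepG2 cells carrying cis-regulated reporter transcription units were exposed for 24 h. Reporter mRNA was measured by RT-PCR with fluorescent labelling and capillary electrophoresis, and fitted in both directions against DMSO.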
# [4] = molecular target: Estrogen receptor (Homo sapiens) (UniProt P03372); assay: ATG_ERa_TRANS: Attagene TRANS-FACTORIAL HepG2 Assay for human Estrogen Receptor alpha (ERa) (AID 2282970); details: HepG2 Attagene TRANS ERa GAL4 reporter, mRNA
# Experimental: ATG_TRANS is a cell-based, multiplexed-readout assay that uses HepG2, a human liver cell line, with measurements taken at 24 hours after chemical dosing in a 24-well plate.ATG_ERa_TRANS is one of 30 assay component(s) measured or calculated from the ATG_TRANS assay. It is designed to make measurements of mRNA induction, a form of inducible reporter, as detected with fluorescence intensity signals by Reverse transcription polymerase chain reaction (RT-PCR) and Capillary electrophoresis technology.Data from the assay component ATG_ERa_TRANS was analyzed into 1 assay endpoint. This assay endpoint, ATG_ERa_TRANS, was analyzed in the positive analysis fitting direction relative to DMSO as the negative control and baseline of activity. Using a type of inducible reporter, measures of mRNA for gain-of-signal activity can be used to understand the reporter gene at the transcription factor-level as they relate to the gene ESR1. Furthermore, this assay endpoint can be referred to as a primary readout, because this assay has produced multiple assay endpoints where this one serves a reporter gene function. To generalize the intended target to other relatable targets, this assay endpoint is annotated to the nuclear receptor intended target family, where the subfamily is steroidal.
# Human liver HepG2 cells are transiently transfected with multiple reporter transcription units (MRTUs) in 6-well plates using FuGene 6 reagent (Roche; 3 ml FuGene/1 mg DNA). The MRTU constructs are regulated by a cis-regulating element (promoter). […] A major difference between the CIS and TRANS system is that in CIS activities of endogenous TFs are measured, whereas the TRANS assay evaluates changes in activities of exogenous, chimeric NR-Gal4 proteins. […] At the end of 24 hour incubation, total RNA was isolated using TriZol reagent (Invitrogen). The isolated RNA is then reverse-transcribed using oligo(dT) primer and Mo-MLV reverse transcriptase (Invitrogen) with DNAse I (Ambion) treatment for 30 min. […]
# [5] = molecular target: Androgen Receptor/SRC-1 Co-activator, AR (gene 367) (UniProt P10275); assay: OT_AR_ARSRC1_0960: Odyssey Thera (OT) 16-hour HEK293T Protein-Complementation Assay for Androgen Receptor/SRC-1 Co-activator (AID 2283353);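 also: actives raise the signal above DMSO so potency reflects increased AR and SRC-1 complex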
# Method in brief: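 HEK293T cells stably expressing AR and SRC-1 fused to Venus YFP fragments, imaged 16 h after dosing. Nuclear/cytoplasmic fluorescence ratio at 488 nm from at least 400 cells per image; gain of signal relative to DMSO.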
# [6] = ATG_ERE_CIS: Attagene CIS-FACTORIAL HepG2 Assay for Estrogen Response Element (ERE) (AID 2282940; active = hit-call score of the fitted dose curve at least 0.9, where 1 is the maximum; inactive = score below 0.9); details: HepG2 ERE cis-reporter, Attagene RNA transcript; actives raise or lower the signal
# Method in brief: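 After 24 h compound treatment, RNA from transfected HepG2 cells was reverse-transcribed, reporter cDNA PCR-amplified, FAM-labelled, HpaI-cut and resolved by capillary electrophoresis. ERE-driven cis reporter transcripts reflect endogenous factors; gain or loss scored against DMSO.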
# [7] = ATG_PXRE_CIS: Attagene CIS-FACTORIAL HepG2 Assay for human Pregnane X Receptor Element (PXRE) (AID 2282957; active = hit-call score of the fitted dose curve at least 0.9, where 1 is the maximum; inactive = score below 0.9); details: HepG2 Attagene CIS-FACTORIAL PXRE reporter, mRNA; actives raise or lower the signal
# Method in brief: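 HepG2 cells transiently transfected with cis-element-driven multiplexed reporter units; after 24 h chemical exposure, reporter mRNA measured by RT-PCR, 6-FAM labelling, HpaI digestion and capillary electrophoresis. Bidirectional fitting relative to DMSO.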
# [8] = ATG_DR4_LXR_CIS: Attagene CIS-FACTORIAL HepG2 Assay for human Liver X Receptor (LXR), DR4 submotif (AID 2282929; active = hit-call score of the fitted dose curve at least 0.9, where 1 is the maximum; inactive = score below 0.9); details: HepG2 Attagene DR4 cis-reporter, mRNA transcription; actives raise or lower the signal
# Method in brief: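 Fluorescence intensity of labelled reporter cDNA fragments, separated by capillary electrophoresis, gives the signal. HepG2 cells bearing cis-regulated reporter constructs were treated 24 h; activity fitted bidirectionally relative to DMSO negative control.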
# [9] = molecular target: human Retinoid X Receptor beta (RXRb), RXRB (gene 6257) (UniProt P28702); assay: ATG_RXRb_TRANS: Attagene TRANS-FACTORIAL HepG2 Assay for human Retinoid X Receptor beta (RXRb) (AID 2283013)
# Method in brief: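 HepG2 cells were transiently transfected with multiplexed GAL4-UAS reporters and a chimeric RXRb-Gal4 construct, then exposed for 24 h. Reporter mRNA was quantified by RT-PCR, FAM labeling, HpaI digestion and capillary electrophoresis; gain of signal was scored against DMSO.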
# Sequence of UniProt P03372 (P03372 whole entry, looked up, the tested form may be a part): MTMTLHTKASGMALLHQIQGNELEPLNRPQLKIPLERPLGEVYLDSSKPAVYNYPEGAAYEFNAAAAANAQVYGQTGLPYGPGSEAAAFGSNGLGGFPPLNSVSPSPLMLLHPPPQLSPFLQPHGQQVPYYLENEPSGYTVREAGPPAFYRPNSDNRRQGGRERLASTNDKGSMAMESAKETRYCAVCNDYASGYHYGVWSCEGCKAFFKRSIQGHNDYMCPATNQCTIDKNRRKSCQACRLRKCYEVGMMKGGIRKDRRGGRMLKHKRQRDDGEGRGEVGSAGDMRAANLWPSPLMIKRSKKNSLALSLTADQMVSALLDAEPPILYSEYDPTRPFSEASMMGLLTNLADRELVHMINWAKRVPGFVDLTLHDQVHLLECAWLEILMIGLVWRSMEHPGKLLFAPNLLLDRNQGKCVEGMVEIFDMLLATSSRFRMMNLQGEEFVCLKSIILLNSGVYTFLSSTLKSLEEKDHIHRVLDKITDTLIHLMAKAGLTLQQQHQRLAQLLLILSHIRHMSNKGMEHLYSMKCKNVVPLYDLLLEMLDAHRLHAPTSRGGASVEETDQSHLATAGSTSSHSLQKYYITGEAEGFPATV
# Sequence of UniProt P49884 (P49884 whole entry, looked up): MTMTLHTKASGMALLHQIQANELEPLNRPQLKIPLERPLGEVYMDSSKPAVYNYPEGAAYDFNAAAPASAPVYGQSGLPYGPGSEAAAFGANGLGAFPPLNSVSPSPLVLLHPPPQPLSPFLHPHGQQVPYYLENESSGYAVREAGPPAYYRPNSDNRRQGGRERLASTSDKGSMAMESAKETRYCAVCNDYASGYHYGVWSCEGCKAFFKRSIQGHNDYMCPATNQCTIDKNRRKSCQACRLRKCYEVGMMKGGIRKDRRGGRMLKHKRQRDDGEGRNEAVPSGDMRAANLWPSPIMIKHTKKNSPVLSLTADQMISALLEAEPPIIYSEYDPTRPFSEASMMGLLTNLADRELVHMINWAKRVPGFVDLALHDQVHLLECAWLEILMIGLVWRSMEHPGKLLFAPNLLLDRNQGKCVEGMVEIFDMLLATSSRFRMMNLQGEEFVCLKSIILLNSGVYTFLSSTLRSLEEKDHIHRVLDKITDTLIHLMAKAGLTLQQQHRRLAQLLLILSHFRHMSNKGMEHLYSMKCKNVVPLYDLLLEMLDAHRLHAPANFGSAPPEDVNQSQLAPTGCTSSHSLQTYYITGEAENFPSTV
# Sequence of UniProt P19785 (P19785 whole entry, looked up): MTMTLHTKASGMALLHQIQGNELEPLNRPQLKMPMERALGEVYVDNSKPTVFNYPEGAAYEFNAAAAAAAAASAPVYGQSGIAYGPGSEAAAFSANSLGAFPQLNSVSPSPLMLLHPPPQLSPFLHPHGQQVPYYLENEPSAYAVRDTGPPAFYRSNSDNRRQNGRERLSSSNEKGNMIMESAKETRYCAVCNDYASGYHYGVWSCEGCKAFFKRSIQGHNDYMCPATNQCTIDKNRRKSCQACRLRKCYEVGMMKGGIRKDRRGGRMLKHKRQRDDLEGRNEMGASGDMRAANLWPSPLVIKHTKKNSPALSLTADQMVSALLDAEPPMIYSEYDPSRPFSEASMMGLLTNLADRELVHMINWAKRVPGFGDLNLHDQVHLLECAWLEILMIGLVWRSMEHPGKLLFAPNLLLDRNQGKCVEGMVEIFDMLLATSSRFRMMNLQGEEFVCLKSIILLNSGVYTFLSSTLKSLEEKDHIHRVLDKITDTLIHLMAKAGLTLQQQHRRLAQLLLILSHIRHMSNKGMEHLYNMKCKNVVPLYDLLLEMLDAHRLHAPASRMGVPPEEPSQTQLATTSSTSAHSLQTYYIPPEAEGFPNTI
# Sequence of UniProt P28702 (P28702 whole entry, looked up, the tested form may be a part): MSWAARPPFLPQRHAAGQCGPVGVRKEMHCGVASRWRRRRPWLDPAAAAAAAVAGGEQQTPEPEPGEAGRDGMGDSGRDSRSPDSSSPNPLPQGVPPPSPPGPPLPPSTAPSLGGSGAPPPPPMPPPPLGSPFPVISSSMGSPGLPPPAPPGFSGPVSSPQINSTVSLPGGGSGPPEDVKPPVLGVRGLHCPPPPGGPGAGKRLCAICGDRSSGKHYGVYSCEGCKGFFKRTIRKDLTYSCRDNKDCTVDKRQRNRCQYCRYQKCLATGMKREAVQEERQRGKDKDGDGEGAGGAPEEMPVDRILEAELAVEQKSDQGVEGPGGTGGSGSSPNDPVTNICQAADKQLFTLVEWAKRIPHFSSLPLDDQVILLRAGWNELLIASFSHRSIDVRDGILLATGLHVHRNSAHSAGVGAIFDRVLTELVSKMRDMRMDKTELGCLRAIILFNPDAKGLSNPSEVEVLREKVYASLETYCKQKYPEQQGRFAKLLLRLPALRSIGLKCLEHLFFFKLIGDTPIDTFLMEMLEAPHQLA
# Sequence of UniProt P10275 (P10275 whole entry, looked up, the tested form may be a part): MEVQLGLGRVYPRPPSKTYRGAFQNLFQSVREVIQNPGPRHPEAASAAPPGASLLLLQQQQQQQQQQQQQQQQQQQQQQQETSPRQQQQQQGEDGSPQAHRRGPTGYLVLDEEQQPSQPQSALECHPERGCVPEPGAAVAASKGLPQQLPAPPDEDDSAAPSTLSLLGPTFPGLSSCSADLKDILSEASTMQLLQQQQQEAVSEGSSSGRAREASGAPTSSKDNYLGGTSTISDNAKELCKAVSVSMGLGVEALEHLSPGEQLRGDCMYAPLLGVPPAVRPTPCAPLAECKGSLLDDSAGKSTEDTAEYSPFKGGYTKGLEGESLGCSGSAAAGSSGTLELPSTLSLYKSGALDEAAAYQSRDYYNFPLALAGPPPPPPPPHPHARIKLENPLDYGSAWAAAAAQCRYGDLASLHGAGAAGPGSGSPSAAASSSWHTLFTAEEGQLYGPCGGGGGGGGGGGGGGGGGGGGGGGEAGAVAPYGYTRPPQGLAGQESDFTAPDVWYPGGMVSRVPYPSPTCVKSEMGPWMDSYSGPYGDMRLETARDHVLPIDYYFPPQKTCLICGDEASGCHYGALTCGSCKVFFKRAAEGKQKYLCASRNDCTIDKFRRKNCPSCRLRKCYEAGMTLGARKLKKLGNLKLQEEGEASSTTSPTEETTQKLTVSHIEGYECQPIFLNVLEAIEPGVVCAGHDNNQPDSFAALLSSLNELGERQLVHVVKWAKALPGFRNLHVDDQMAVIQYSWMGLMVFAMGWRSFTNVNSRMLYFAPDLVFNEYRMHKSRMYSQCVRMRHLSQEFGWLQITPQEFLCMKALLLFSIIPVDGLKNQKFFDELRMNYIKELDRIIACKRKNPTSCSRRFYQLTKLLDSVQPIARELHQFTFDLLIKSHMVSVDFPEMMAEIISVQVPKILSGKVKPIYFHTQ
structure (smiles),measurement,setting,value
Oc1ccc(C(c2ccc(O)cc2)(C(F)(F)F)C(F)(F)F)cc1,AC50,[1],"active: 50, 185, 110, 97.6, 78.5 nM [separate samples]"
same,AC50,[2],"active: 21.8, 66, 22.5, 5.36, 13.3 nM [separate samples]"
CCC(=O)O[C@H]1CC[C@H]2[C@@H]3CCC4=CC(=O)CC[C@]4(C)[C@H]3CC[C@]12C,AC50,[3],"active: 31, 43.6, 21.5, 70.6 µM [separate samples]"
same,AC50,[4],"active: 9.14, 9.09, 4.33, 40.4 nM [separate samples]"
same,AC50,[5],"active: 9.2, 7.03, 8.72, 30 nM (3×) [separate samples]"
C[C@]12CCC(=O)C=C1CC[C@@H]1[C@@H]2CC[C@@]2(C)[C@H]1CC[C@]2(C)O,AC50,[6],"active: 8.52, 47.9, 48.5, 7.79 nM [separate samples]"
same,AC50,[7],"active: 24.6, 8.23, 15.4, 24.9 µM [separate samples]"
same,AC50,[4],"active: 8.37, 8.27, 55, 8.04 nM [separate samples]"
C[C@]12CCC(=O)C=C1CC[C@@H]1[C@@H]2CC[C@]2(C)C(=O)CC[C@@H]12,AC50,[6],"active: 38.7, 214, 17.6, 8.96 nM [separate samples]"
Clc1ccc(C(c2ccccc2Cl)C(Cl)(Cl)Cl)cc1 (stereo unspecified),AC50,[8],"active: 19, 7.09, 16.8, 42.6 µM [separate samples]"
same,AC50,[9],"active: 15.4, 4.26, 11.8, 11.4 µM [separate samples]"
